# Reference: the supplement of paper PMC8728848
# This is one part of the list.
# B1: BDCA2 ex-domain (Homo sapiens) (protein)
# chain: MASHHHHHHIEGRGLNDIFEAQKIEWHESLVPRGSCPTPWTSFQSSCYFISTGMQSWTKSQKNCSVMGADLVVINTREEQDFIIQNLKRNSSYFLGLSDPGGRRHWQWVDQTPYNENVTFWHSGEPNNLDERCAIINFRSSEEWGWNDIHCHVPQKSICKMKKIY
# Columns and labels:
# Experiment in all cases: glycan array binding signal (z-score within array); higher = stronger binding
# Conditions in all cases: glycan notation: IUPAC condensed, linker removed
# [1] = target: Gal(b1-4)GlcNAc(b1-3)Gal(b1-4)GlcNAc(b1-3)Gal(b1-4)GlcNAc
# Method in brief: (§1)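 The binding signal is a Z-score computed within each array. Data were drawn from 3228 arrays in the Consortium for Functional Glycomics database, restricted to those with a known protein sequence. Scores were averaged over arrays of the same protein sequence at different concentrations or buffers, and over linkers, and negative values can be taken as non-binding.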
# [2] = target: Gal(b1-4)GlcNAc(b1-3)Gal(b1-4)[Fuc(a1-3)]GlcNAc(b1-3)Gal(b1-4)[Fuc(a1-3)]GlcNAc
# Method in brief: as §1
# [3] = target: Gal(b1-4)GlcNAc(b1-3)GalNAc
# Method in brief: as §1
# [4] = target: Gal(b1-4)GlcNAc(b1-3)[Gal(b1-4)GlcNAc(b1-6)]Gal(b1-4)GlcNAc
# Method in brief: as §1
# [5] = target: Gal(b1-4)GlcNAc(b1-3)[GlcNAc(b1-6)]Gal(b1-4)GlcNAc
# Method in brief: as §1
# [6] = target: Gal(b1-4)GlcNAc(b1-6)Gal(b1-4)GlcNAc
# Method in brief: as §1
# [7] = target: Gal(b1-4)GlcNAc(b1-6)Gal(b1-4)GlcNAc(b1-6)GalNAc
# Method in brief: as §1
# [8] = target: Gal(b1-4)GlcNAc(b1-6)GalNAc
# Method in brief: as §1
# [9] = target: Gal(b1-4)GlcNAc(b1-6)[Gal(b1-3)]GalNAc
# Method in brief: as §1
# [10] = target: Gal3S(b1-3)GalNAc
# Method in brief: as §1
# [11] = target: Gal3S(b1-3)GlcNAc
# Method in brief: as §1
# [12] = target: Gal3S(b1-3)[Fuc(a1-4)]GlcNAc
# Method in brief: as §1
# [13] = target: Gal3S(b1-4)Glc
# Method in brief: as §1
# [14] = target: Gal3S(b1-4)Glc6S
# Method in brief: as §1
# [15] = target: Gal3S(b1-4)GlcNAc
# Method in brief: as §1
# [16] = target: Gal3S(b1-4)GlcNAc6S
# Method in brief: as §1
# [17] = target: Gal3S(b1-4)[Fuc(a1-3)]Glc
# Method in brief: as §1
# [18] = target: Gal3S4S(b1-4)GlcNAc
# Method in brief: as §1
# [19] = target: Gal3S6S(b1-4)GlcNAc
# Method in brief: as §1
# [20] = target: Gal3S6S(b1-4)GlcNAc6S
# Method in brief: as §1
# [21] = target: Gal4S(b1-4)GlcNAc
# Method in brief: as §1
# [22] = target: Gal4S6S(b1-4)GlcNAc
# Method in brief: as §1
# [23] = target: Gal6S(b1-4)Glc
# Method in brief: as §1
# [24] = target: Gal6S(b1-4)Glc6S
# Method in brief: as §1
# [25] = target: Gal6S(b1-4)GlcNAc
# Method in brief: as §1
# [26] = target: Gal6S(b1-4)GlcNAc6S
# Method in brief: as §1
# [27] = target: GalNAc(a1-3)Gal
# Method in brief: as §1
# [28] = target: GalNAc(a1-3)GalNAc
# Method in brief: as §1
# [29] = target: GalNAc(b1-3)Gal
# Method in brief: as §1
# [30] = target: GalNAc(b1-3)Gal(a1-4)Gal(b1-4)GlcNAc
# Method in brief: as §1
# [31] = target: GalNAc(b1-3)GalNAc
# Method in brief: as §1
# [32] = target: GalNAc(b1-4)GlcNAc
# Method in brief: as §1
# [33] = target: Glc(a1-4)Glc
# Method in brief: as §1
# [34] = target: Glc(a1-6)Glc(a1-6)Glc
# Method in brief: as §1
# [35] = target: Glc(b1-4)Glc
# Method in brief: as §1
# [36] = target: Glc(b1-6)Glc
# Method in brief: as §1
# [37] = target: GlcA(b1-3)Gal
# Method in brief: as §1
# [38] = target: GlcA(b1-3)GlcNAc
# Method in brief: as §1
# [39] = target: GlcA(b1-6)Gal
# Method in brief: as §1
# [40] = target: GlcNAc(a1-3)Gal(b1-4)GlcNAc
# Method in brief: as §1
# [41] = target: GlcNAc(a1-6)Gal(b1-4)GlcNAc
# Method in brief: as §1
# [42] = target: GlcNAc(b1-2)Gal(b1-3)GalNAc
# Method in brief: as §1
# [43] = target: GlcNAc(b1-2)Man(a1-3)[GlcNAc(b1-2)Man(a1-6)]Man(b1-4)GlcNAc(b1-4)GlcNAc
# Method in brief: as §1
# [44] = target: GlcNAc(b1-3)Gal
# Method in brief: as §1
# [45] = target: GlcNAc(b1-3)Gal(b1-3)GalNAc
# Method in brief: as §1
# [46] = target: GlcNAc(b1-3)Gal(b1-4)Glc
# Method in brief: as §1
# [47] = target: GlcNAc(b1-3)Gal(b1-4)GlcNAc
# Method in brief: as §1
# [48] = target: GlcNAc(b1-3)Gal(b1-4)GlcNAc(b1-3)Gal(b1-4)GlcNAc
# Method in brief: as §1
# [49] = target: GlcNAc(b1-3)GalNAc
# Method in brief: as §1
# [50] = target: GlcNAc(b1-3)Man
# Method in brief: as §1
# [51] = target: GlcNAc(b1-3)[GlcNAc(b1-4)][GlcNAc(b1-6)]GlcNAc
# Method in brief: as §1
# [52] = target: GlcNAc(b1-3)[GlcNAc(b1-6)]Gal(b1-4)GlcNAc
# Method in brief: as §1
# [53] = target: GlcNAc(b1-3)[GlcNAc(b1-6)]GalNAc
# Method in brief: as §1
# [54] = target: GlcNAc(b1-4)Gal(b1-4)GlcNAc
# Method in brief: as §1
# [55] = target: GlcNAc(b1-4)GlcNAc
# Method in brief: as §1
# [56] = target: GlcNAc(b1-4)GlcNAc(b1-4)GlcNAc
# Method in brief: as §1
# [57] = target: GlcNAc(b1-4)GlcNAc(b1-4)GlcNAc(b1-4)GlcNAc(b1-4)GlcNAc
# Method in brief: as §1
# [58] = target: GlcNAc(b1-4)GlcNAc(b1-4)GlcNAc(b1-4)GlcNAc(b1-4)GlcNAc(b1-4)GlcNAc
# Method in brief: as §1
# [59] = target: GlcNAc(b1-4)[GlcNAc(b1-6)]GalNAc
# Method in brief: as §1
# [60] = target: GlcNAc(b1-6)Gal(b1-4)GlcNAc
# Method in brief: as §1
# [61] = target: GlcNAc(b1-6)GalNAc
# Method in brief: as §1
# [62] = target: GlcNAc3Prop(b1-4)GlcNAc
# Method in brief: as §1
# [63] = target: Kdn(a2-3)Gal(b1-3)GlcNAc
# Method in brief: as §1
# [64] = target: Kdn(a2-3)Gal(b1-4)GlcNAc
# Method in brief: as §1
# [65] = target: Man(a1-2)Man(a1-2)Man(a1-3)Man
# Method in brief: as §1
# [66] = target: Man(a1-2)Man(a1-2)Man(a1-6)[Man(a1-3)]Man
# Method in brief: as §1
# [67] = target: Man(a1-2)Man(a1-3)Man
# Method in brief: as §1
# [68] = target: Man(a1-2)Man(a1-3)[Man(a1-2)Man(a1-6)]Man
# Method in brief: as §1
# [69] = target: Man(a1-2)Man(a1-3)[Man(a1-2)Man(a1-6)]Man(a1-6)[Man(a1-2)Man(a1-2)Man(a1-3)]Man
# Method in brief: as §1
# [70] = target: Man(a1-2)Man(a1-3)[Man(a1-2)Man(a1-6)]Man(a1-6)[Man(a1-2)Man(a1-2)Man(a1-3)]Man(b1-4)GlcNAc(b1-4)GlcNAc
# Method in brief: as §1
# [71] = target: Man(a1-2)Man(a1-3)[Man(a1-6)]Man(a1-6)[Man(a1-2)Man(a1-3)]Man(b1-4)GlcNAc(b1-4)GlcNAc
# Method in brief: as §1
# [72] = target: Man(a1-2)Man(a1-6)[Man(a1-3)]Man(a1-6)[Man(a1-2)Man(a1-2)Man(a1-3)]Man
# Method in brief: as §1
# [73] = target: Man(a1-2)Man(a1-6)[Man(a1-3)]Man(a1-6)[Man(a1-2)Man(a1-2)Man(a1-3)]Man(b1-4)GlcNAc(b1-4)GlcNAc
# Method in brief: as §1
# [74] = target: Man(a1-3)[Man(a1-6)]Man
# Method in brief: as §1
binder,measurement,setting,value
B1,glycan array binding signal (z-score),[1],1.12
same,glycan array binding signal (z-score),[2],0.128
same,glycan array binding signal (z-score),[3],-0.271
same,glycan array binding signal (z-score),[4],-0.11
same,glycan array binding signal (z-score),[5],-0.582
same,glycan array binding signal (z-score),[6],-0.387
same,glycan array binding signal (z-score),[7],-0.265
same,glycan array binding signal (z-score),[8],-0.505
same,glycan array binding signal (z-score),[9],-0.26
same,glycan array binding signal (z-score),[10],-0.423
same,glycan array binding signal (z-score),[11],-0.181
same,glycan array binding signal (z-score),[12],-0.411
same,glycan array binding signal (z-score),[13],-0.238
same,glycan array binding signal (z-score),[14],-0.21
same,glycan array binding signal (z-score),[15],-0.181
same,glycan array binding signal (z-score),[16],-0.422
same,glycan array binding signal (z-score),[17],-0.316
same,glycan array binding signal (z-score),[18],1.81
same,glycan array binding signal (z-score),[19],-0.278
same,glycan array binding signal (z-score),[20],-0.253
same,glycan array binding signal (z-score),[21],0.395
same,glycan array binding signal (z-score),[22],-0.342
same,glycan array binding signal (z-score),[23],-0.28
same,glycan array binding signal (z-score),[24],-0.203
same,glycan array binding signal (z-score),[25],-0.258
same,glycan array binding signal (z-score),[26],0.081
same,glycan array binding signal (z-score),[27],0.037
same,glycan array binding signal (z-score),[28],-0.212
same,glycan array binding signal (z-score),[29],-0.197
same,glycan array binding signal (z-score),[30],0.776
same,glycan array binding signal (z-score),[31],-0.333
same,glycan array binding signal (z-score),[32],-0.278
same,glycan array binding signal (z-score),[33],-0.018
same,glycan array binding signal (z-score),[34],-0.187
same,glycan array binding signal (z-score),[35],-0.389
same,glycan array binding signal (z-score),[36],-0.341
same,glycan array binding signal (z-score),[37],-0.219
same,glycan array binding signal (z-score),[38],-0.1
same,glycan array binding signal (z-score),[39],-0.124
same,glycan array binding signal (z-score),[40],0.295
same,glycan array binding signal (z-score),[41],-0.184
same,glycan array binding signal (z-score),[42],-0.107
same,glycan array binding signal (z-score),[43],0.168
same,glycan array binding signal (z-score),[44],-0.292
same,glycan array binding signal (z-score),[45],-0.205
same,glycan array binding signal (z-score),[46],-0.489
same,glycan array binding signal (z-score),[47],0.78
same,glycan array binding signal (z-score),[48],-0.287
same,glycan array binding signal (z-score),[49],-0.327
same,glycan array binding signal (z-score),[50],-0.346
same,glycan array binding signal (z-score),[51],-0.282
same,glycan array binding signal (z-score),[52],-0.208
same,glycan array binding signal (z-score),[53],-0.347
same,glycan array binding signal (z-score),[54],0.139
same,glycan array binding signal (z-score),[55],-0.335
same,glycan array binding signal (z-score),[56],-0.131
same,glycan array binding signal (z-score),[57],0.741
same,glycan array binding signal (z-score),[58],0.075
same,glycan array binding signal (z-score),[59],-0.182
same,glycan array binding signal (z-score),[60],0.056
same,glycan array binding signal (z-score),[61],-0.279
same,glycan array binding signal (z-score),[62],-0.45
same,glycan array binding signal (z-score),[63],-0.114
same,glycan array binding signal (z-score),[64],0.619
same,glycan array binding signal (z-score),[65],-0.52
same,glycan array binding signal (z-score),[66],-0.128
same,glycan array binding signal (z-score),[67],-0.407
same,glycan array binding signal (z-score),[68],0.622
same,glycan array binding signal (z-score),[69],-0.068
same,glycan array binding signal (z-score),[70],0.299
same,glycan array binding signal (z-score),[71],0.107
same,glycan array binding signal (z-score),[72],-0.559
same,glycan array binding signal (z-score),[73],-0.433
same,glycan array binding signal (z-score),[74],-0.26
